Results reported in PubChem BioAssay AID1508624 (National Center for Advancing Translational Sciences (NCATS), 2021).
Screen size: about 48,000 compounds; about 120 (0.25%) were called active. Another 4% or so got no clear call; they are omitted. The call rests on the fitted dose curve; in most records, active means well fitted activation curve with a large enough effect; inconclusive means small, poorly fitted or top-dose-only effect, or another doubt; inactive means no such curve, though single readings can be large or run the other way. The list shows a part of the results.

Assay: Primary qHTS for Identification of Small Molecule Activators of Huntingtin-Antisense Promoter Activity; further: nearly all actives have a fitted effect of over 55% in size
Settings: HEK293 HTT-AS promoter firefly luciferase reporter, 24 h; series mostly up to 57.5 µM; activity change, positive = activation: at the top concentration
Method in brief: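 HEK293 Fluc reporter, 2,500 cells/well, 24 h pre-culture; cpds up to 57.5 uM final, 24 h 37 degrees C; Dual-Glo, 10 min RT; normalized vehicle = 0%, zero RLU = -100%.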

Activity change, positive = activation, inactive:
CCOc1ccccc1NC(=O)C(=O)NCC(c1cccnc1)N1CCN(c2ccccc2)CC1 (stereo not drawn) -25.7%
COc1ccc(C)cc1NC(=O)Cc1ccc(NC(=O)N2CCCCc3ccccc32)cc1 -8.41%
Cc1ccc2nc(NCCc3ccc(Cl)cc3)c3nncn3c2c1 -10.6%
Cc1ccc(C)c(Oc2c(C(F)(F)F)oc3c(CN4CCN(C)CC4)c(O)ccc3c2=O)c1 12.1%
CC(C)c1ccc(Nc2c(-c3ccsc3)nc3ccc(Cl)cn23)cc1 22.4%
CCOC(=O)C1=C(CN(C)Cc2ccccc2)NC(=O)NC1c1ccc(OC(C)C)cc1 (stereo not drawn) -38.9%
CCn1cc(C(=O)NCc2ccccc2Cl)c(=O)c2cc(S(=O)(=O)N3CCOCC3)ccc21 -3.61%
C[C@@H]1C[C@H]2[C@@H]3CCC4=CC(=O)C=C[C@]4(C)[C@@]3(F)[C@@H](O)C[C@]2(C)[C@H]1C(=O)CO -12.6%
C#CC(C)(CC)OC(=O)c1ccccc1C(=O)O (stereo not drawn) 0.579%
CCC(=O)C1=C(c2ccccc2)N(C(=O)CC)n2c(nnc2C2CCCCC2)S1 0.283%
O=C(Nc1ccccc1[N+](=O)[O-])c1csnn1 6.26%
Cc1nn(C)c2c1c(C(F)(F)F)cc(=O)n2C(C)C(=O)NCc1ccccc1 (stereo not drawn) -10.7%
CCOCCc1nn2c(=O)cc(COC(=O)c3ccc4c(c3)OCO4)nc2s1 -3.89%
O=S(=O)(c1ccc(Br)cc1)N1CCn2cccc2C1c1ccc(Br)cc1 (stereo not drawn) -19.7%
COc1ccc(-c2nc(CS(=O)CC(=O)NCc3ccccc3Cl)c(C)o2)cc1OC (stereo not drawn) -4.41%
O=C(c1ccco1)N1CCNCC1 -2.24%
Cn1c(C(=O)Nc2cccc(Cl)c2)cc2c(=O)n(C)c3ccccc3c21 -6.92%
Cc1ccc(-c2cn3c(n2)sc2cc(C(=O)NC4CCCCCC4)ccc23)c(C)c1 4.8%
Cc1oc2c(c(C)cc3oc(=O)c(CC(=O)NCCc4ccc(Cl)cc4)c(C)c32)c1C -5.47%
Cc1cccc(NC(c2nnc(-c3ccccc3)o2)c2ccc(F)cc2Cl)c1C (stereo not drawn) -26.2%
Cc1ccc(Cl)cc1N1CCN(C(=O)C2CCN(S(=O)(=O)c3c(C)noc3/C=C/c3ccccc3F)CC2)CC1 -5.29%
CC(C)c1nn2c(=O)cc(COC(=O)COc3ccccc3F)nc2s1 17.5%
CCc1ccccc1NC(=O)CSc1nc2ccccc2nc1Cc1cccc(OC)c1 -5.78%
O=C(NCc1ccccc1)c1ccc2c(c1)sc1nc(-c3ccc(F)cc3)cn12 12.2%
COc1cccc(-c2cn3c(n2)sc2cc(C(=O)NCCc4ccccc4)ccc23)c1 19.4%
CCCN(C(=O)Cn1nc(Cc2cccnc2)c2ccccc2c1=O)c1ccc(C(C)C)cc1 -44.9%
CCN(CC)C(=O)Nc1ccc(OCC(O)CNC(C)(C)C)c(C(C)=O)c1 (stereo not drawn) -2.76%
COc1ccc(CCNC(=O)c2cc(-c3ccc(C)c(C)c3)nc3ccccc23)cc1OC 0%
CCCn1c2ccc(C)cc2c2nnc(SCCN3CCCCC3)nc21 -15.1%
Cc1ccc(S(=O)(=O)Nc2nc3n(n2)C(c2ccc(Cl)cc2)C=C(c2ccccc2)N3)cc1 (stereo not drawn) -14%
O=C(CN1C(=O)CC(c2ccco2)Sc2ccccc21)Nc1ccc(OC(F)(F)F)cc1 (stereo not drawn) -20.5%
CCOc1ccc(C2CC(=O)c3c([nH]c(C(=O)OC4CCCCCC4)c3C)C2)cc1 (stereo not drawn) -12.1%
COc1ccc(C(=O)NCC(c2cccs2)S(=O)(=O)c2cccs2)cc1 (stereo not drawn) -24.3%
Cc1ccc(NC(=O)[C@H](Cc2ccccc2)N2Cc3ccccc3C2=O)cc1F -14.1%
CC1=C(C(=O)OC2CCCCCC2)C(c2c(Cl)cccc2Cl)CC(=O)N1 (stereo not drawn) -45.9%
CCOC(=O)C1=C(CN2CCCCC2)NC(=O)NC1c1ccc(OC)cc1 (stereo not drawn) -8.08%
Cc1cccc(NC(=O)c2ccc(F)c(S(=O)(=O)N3CCN(c4ccc(F)cc4)CC3)c2)c1 -30.7%
COc1cc(OC)c(NC(=O)Nc2cc(C)on2)cc1Cl -12.2%
Cc1ccc(-c2cn3c(n2)sc2cc(C(=O)NC4CCCCC4)ccc23)cc1 -7.78%
CCOc1ccccc1NC(=O)c1cn(C2CCCCC2)c(=O)c2c1c1ccccc1n2C -10.3%
COc1ccc(CCNC(=O)CCn2c(=O)c3cccn3c3ccc(F)cc32)cc1OC -2.68%
CCCCC1C(=O)N(c2ccccc2)N(c2ccc(O)cc2)C1=O (stereo not drawn) -87.2%
CCOC(=O)c1ccc(CN(Cc2ccc(Cl)cc2Cl)S(=O)(=O)c2cccc(Cl)c2)cc1 -19.4%
Cc1cc(-c2ccc(C)c(S(=O)(=O)N(C(C)C)C3CCCCC3)c2)on1 -19.8%
CCn1c(=O)c2c(nc(C=Cc3ccc(OC)c(OC)c3)n2C)n(CC)c1=O -6.66%
CC1(C)O[C@H]2[C@@H](O1)[C@@H](C(=O)Nc1cc(F)ccc1F)O[C@@H]1OC(C)(C)O[C@@H]12 -6.82%
COc1cc2c(cc1OC)C(C(C(=O)N(CCc1ccc(OC)c(OC)c1OC)CCc1ccc(OC)c(OC)c1OC)c1ccccc1)=NCC2 (stereo not drawn) -17%
Cc1ccc2nc(N(Cc3cccnc3)C(=O)CCc3ccccc3)sc2c1 2.81%
Cc1cccc(-c2cc(C(=O)O)c3c(-c4ccc(F)cc4)[nH]nc3n2)c1 -4.79%
CNC(=O)c1ccc(N2C(=S)N(c3ccc(C#N)c(C(F)(F)F)c3)C(=O)C2(C)C)cc1F -19.6%
COc1ccc(-c2nc3n(n2)C(c2cccc(C)c2)C(C(N)=O)=C(C)N3)cc1OC (stereo not drawn) -0.877%
O=C(CCBr)N1CCN(C(=O)CCBr)CC1 2.16%
CCOC(=O)C(C)Nc1ncnc2onc(C)c12 (stereo not drawn) -15.5%
COc1cc(NC(=O)CCCN2C(=O)CCn3nc(-c4cn(C)c5ccccc45)cc32)cc(OC)c1 -12.7%
O=C(c1cnc(N2CCCCC2)c2ccccc12)N1CCN(c2ccc(F)cc2)CC1 -23.1%
Fc1ccc(Nc2nc(-c3ccc(F)cc3)c3c(n2)-c2ccccc2OC3)cc1 -5.75%
COc1cccc(C(=O)Nc2ccc3nc(SCC(=O)N4CCc5ccccc54)sc3c2)c1 4.24%
Cc1sc2c(c1C)c(=O)n(-c1ccc(Cl)cc1)c(=O)n2CC(=O)c1ccccc1 16.2%
Cc1c(NC(=O)c2ccc(-c3ccc(F)cc3)o2)cccc1-c1nc2ncccc2o1 -11.3%
COc1cccc(CNC(=O)c2ccc3c(c2)sc2nc(-c4ccccc4)cn23)c1OC 10.1%
CCOc1ccccc1CNC(=O)c1cc2oc3ccccc3c2n1CC -38.5%
O=c1[nH]c2ccc(S(=O)(=O)Nc3cc(Cl)ccc3O)cc2o1 -23.9%
Cc1ccc(-c2nc3scc(CCNS(=O)(=O)c4c(C)noc4C)n3n2)cc1 -23.7%
NS(=O)(=O)c1ccc(CCNC(=O)CCn2c(=O)c3cccn3c3cccnc32)cc1 -4.05%
Cc1cc(F)ccc1NC(=O)CN1C(=O)CCc2cc(S(=O)(=O)N3CCOCC3)ccc21 -3.51%
CCOc1cc2ncc(C#N)c(Nc3ccc(OCc4ccccn4)c(Cl)c3)c2cc1NC(=O)C=CCN(C)C -24.4%
COc1cc2nc(N3CCN(C(=O)C4COc5ccccc5O4)CC3)nc(N)c2cc1OC (stereo not drawn)
Cc1cc(Br)ccc1NC(=O)C(NS(=O)(=O)c1cccs1)c1ccccc1 (stereo not drawn) -24.7%
COc1ccc(Cl)cc1NC(=O)c1cc2nc(-c3ccc(C)cc3)cc(C(F)(F)F)n2n1 -6.96% [at 11.5 µM, percent change from vehicle, -100% = no light]
COc1ccc2c(CNCCc3ccccc3OC)c(C(=O)O)n(Cc3ccc(F)cc3Cl)c2c1 -60.7%
CSc1cccc(NC(=O)N2CCN(S(=O)(=O)c3ccc4c(ccn4C)c3)CC2)c1 -23.6%
O=C(CSc1nc(-c2ccccc2)no1)N1CCN(c2ccc(F)cc2)CC1 0.942%
COc1ccc(C2=NS(=O)(=O)N(C)C(C(=O)NC(C)c3ccccc3)=C2)cc1OC (stereo not drawn) -16.6%
CC1=C(C(=O)OC2CCCC2)C(c2ccc(Cl)cc2)CC(=O)N1 (stereo not drawn) -25.1%
Cc1cc(C)cc(NC(=O)CN(c2cccc(C)c2C)S(=O)(=O)c2ccccc2)c1 -13.5%
COc1cccc(N2C(=O)CSC23C(=O)N(Cc2ccccc2F)c2ccccc23)c1 (stereo not drawn) -25.9%
CCC(=O)N1CCc2cc(Br)cc(S(=O)(=O)N3CCN(c4cccc(Cl)c4)CC3)c21 -15.3%
O=C(OCC1CCCO1)c1ccc2c(c1)N(Cc1cccc(F)c1)C(=O)c1ccccc1S2(=O)=O (stereo not drawn) -9.59%
Cc1nc2c(-c3ccc(F)cc3)c(C)nn2c(C)c1CCC(=O)NCc1cccc(Cl)c1 0.91%
CCOc1cccc(C2c3[nH]c4ccccc4c3CCN2C(=O)Cc2cccc(OCC)c2OCC)c1 (stereo not drawn) -22.4%
CC1CCc2nc(NC(=O)Cc3ccc(Cl)cc3)sc2C1 (stereo not drawn) 22.8%
Cc1cc2c(cc1S(=O)(=O)CCC(=O)N(C)Cc1ccccc1)OCC(=O)N2 -5.04%
Cc1cccc(NC(=O)CSc2nc(C)c(Cc3ccccc3)c(=O)[nH]2)c1C -5.45%
FC(F)(F)c1ccc(Nc2nc3ccc(Oc4ccnc(-c5ncc(C(F)(F)F)[nH]5)c4)cc3[nH]2)cc1 -33.8%
Cc1ccc(CNC(=O)c2cc(Sc3ccc(F)cc3F)nc3ccccc23)cc1 -8.22%
CCC(C(=O)N(C)Cc1ccccc1)n1nc(C)c2sc3ccccc3c2c1=O (stereo not drawn) -41.4%
COc1ccc(CNC(=O)CCc2c(C)nn(-c3ccc(N4CCOCC4)nn3)c2C)cc1 -7.87%
COc1ccc(CCNC(=O)C2=C(C)C(=O)OC23CCCCC3)c(OC)c1 -14.9%
CC(=O)N1CCCC1c1nc2ccccc2n1Cc1cc(C)ccc1C (stereo not drawn) -24.7%
CCOC(=O)N1CCN(S(=O)(=O)N2CCCC(C(=O)NCc3ccccc3OC)C2)CC1 (stereo not drawn) -21.6%
Cc1ccc2ccc3cc(C(=O)Nc4ccc(C)c(F)c4)nc3c2[nH]1 -9.43%
CCOC(=O)c1ccc(CN(Cc2ccc(F)cc2)S(=O)(=O)c2cc(C(=O)Nc3ccccc3CC)ccc2F)cc1 -32.5%
COc1ccc(NC(=O)C2CCCN(S(=O)(=O)c3ccc4[nH]c(=O)ccc4c3)C2)cc1OC (stereo not drawn) -4.59%
